Laboratory results published in the supplement of paper PMC3334620.
Whole data set: some 33,000 sequences, median “E-score (-0.5 to 0.5)” near -0.021, cut for the highest 2% near 0.32. The list shows a part of the results.

molecular target: T1, Zap1 (UniProt P47043); assay: PBM E-score (8-mer binding enrichment) (E-score (-0.5 to 0.5)); higher = stronger / more preferred TF binding; most listed sequences are background and not binding sites; settings: protein concentration: 200 nM; construct: GST-full length
T1 sequence: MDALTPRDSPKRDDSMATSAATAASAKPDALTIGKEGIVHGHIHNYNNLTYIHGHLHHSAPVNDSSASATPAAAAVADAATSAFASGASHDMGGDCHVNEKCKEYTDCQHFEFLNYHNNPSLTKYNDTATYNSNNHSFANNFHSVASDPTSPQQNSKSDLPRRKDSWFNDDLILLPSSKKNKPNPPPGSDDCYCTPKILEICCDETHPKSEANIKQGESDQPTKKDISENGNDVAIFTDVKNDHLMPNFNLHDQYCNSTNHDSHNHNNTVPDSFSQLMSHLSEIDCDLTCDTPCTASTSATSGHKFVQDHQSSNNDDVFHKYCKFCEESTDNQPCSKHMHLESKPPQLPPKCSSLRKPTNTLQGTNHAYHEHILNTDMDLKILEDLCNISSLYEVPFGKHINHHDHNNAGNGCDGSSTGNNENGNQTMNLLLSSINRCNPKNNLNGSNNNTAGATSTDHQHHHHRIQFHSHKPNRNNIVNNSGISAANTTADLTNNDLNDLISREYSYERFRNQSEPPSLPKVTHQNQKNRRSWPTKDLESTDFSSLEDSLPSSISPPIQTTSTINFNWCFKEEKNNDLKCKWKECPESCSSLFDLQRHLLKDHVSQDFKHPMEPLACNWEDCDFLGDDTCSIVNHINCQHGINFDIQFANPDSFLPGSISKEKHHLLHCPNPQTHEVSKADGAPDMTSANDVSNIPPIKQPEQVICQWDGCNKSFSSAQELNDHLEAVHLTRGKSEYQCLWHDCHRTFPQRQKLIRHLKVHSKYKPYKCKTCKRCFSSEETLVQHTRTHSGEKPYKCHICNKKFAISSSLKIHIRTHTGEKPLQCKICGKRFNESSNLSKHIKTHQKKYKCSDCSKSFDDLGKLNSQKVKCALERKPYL
Outline: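 Universal all-10-mer Agilent arrays, fresh or stripped once, were converted to double-stranded form by primer extension. GST-tagged yeast transcription factors from PURExpress in vitro transcription/translation, full-length or DNA-binding domain only, were applied at about 100-200 nM and detected with fluorescent anti-GST. After masliner normalisation, the Universal PBM Analysis Suite scored each ungapped eight-base word together with its reverse complement by E-score.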

Going from TCCCATAA to GGATACCA, the “PBM E-score” value falls from 0.182 to 0.17.

Going from GAGAGTAC to GATACCGA, the “PBM E-score” value rises from -0.0748 to -0.0307.

First: AGGGAGTC
Second: AAGGTCGT
The “PBM E-score” value of the first is lower: -0.23 for the first, 0.334 for the second.

Going from AAAGCCTC to ATAAATCA, the “PBM E-score” value rises from -0.19 to 0.106.

First: AGTGGAGC
Second: CCGGTGAA
The “PBM E-score” value of the first is lower: -0.353 for the first, 0.0664 for the second.

Going from TATGCCAA to AGGTGGCA, the “PBM E-score” value falls from 0.102 to 0.00608.

First: CGGAGCTA
Second: CTACGGAA
The “PBM E-score” value of the first is lower: -0.191 for the first, -0.124 for the second.

Going from AACTTGAC to GCGCCGAC, the “PBM E-score” value falls from 0.124 to -0.282.

Going from GCATTAGA to CCCTGCAC, the “PBM E-score” value falls from 0.0441 to 0.0155.

Going from GCTCCAAA to ATTAATAA, the “PBM E-score” value rises from -0.0722 to 0.21.

Going from ATCTCCGG to AACGAGCA, the “PBM E-score” value falls from 0.0468 to -0.0771.

Compared with ATCCTATG, ATTTAAGG is higher in “PBM E-score” value: -0.141 for the first, 0.069 for the second.

First: TGAGGGAA
Second: AATCATGG
The “PBM E-score” value of the first is lower: -0.169 for the first, 0.0519 for the second.

First: AGCAGGCC
Second: AATAGTCA
The “PBM E-score” value of the first is lower: -0.143 for the first, -0.0427 for the second.

First: AACGTCTC
Second: CTACGCTA
The “PBM E-score” value of the first is lower: -0.207 for the first, -0.192 for the second.

Compared with GGAGGATA, ATTTCTGG is higher in “PBM E-score” value: -0.248 for the first, 0.0521 for the second.

Going from ATCTCGAA to CTGTGAGC, the “PBM E-score” value falls from 0.0457 to -0.1.

Going from TACACGTA to AATGAGGT, the “PBM E-score” value rises from -0.0778 to 0.235.

Compared with CGTCATCA, CCCTACAC is higher in “PBM E-score” value: -0.116 for the first, 0.0286 for the second.

First: ATAATAGC
Second: CAACGCAC
The “PBM E-score” value of the first is lower: -0.189 for the first, -0.0359 for the second.

First: CTAGTCTC
Second: AATTAATG
The “PBM E-score” value of the first is lower: -0.151 for the first, 0.0953 for the second.

First: CATGACTA
Second: ACCTATCC
The “PBM E-score” value of the first is lower: -0.209 for the first, 0.152 for the second.

Going from ACTTGTGG to CACTTAGC, the “PBM E-score” value falls from 0.154 to -0.169.

Going from AAATTTTC to CCTGTTCA, the “PBM E-score” value falls from 0.0442 to -0.104.

First: AAGGATCG
Second: CCCACAAG
The “PBM E-score” value of the first is lower: -0.0555 for the first, 0.231 for the second.

First: CAAGGAGC
Second: AAATGACA
The “PBM E-score” value of the first is lower: -0.24 for the first, -0.08 for the second.

First: ATTCCTGA
Second: CGCGGAGA
The “PBM E-score” value of the first is lower: -0.13 for the first, -0.0473 for the second.

Going from CTGCTACA to CCGTGTCA, the “PBM E-score” value rises from -0.134 to -0.114.

First: TCGACTAA
Second: CCCTGGGC
The “PBM E-score” value of the first is lower: -0.0044 for the first, 0.0761 for the second.

Compared with CAAACTTC, AGGTACTA is higher in “PBM E-score” value: 0.0004 for the first, 0.29 for the second.

Going from CCCCCCCC to CCGGGGCC, the “PBM E-score” value rises from -0.412 to 0.109.

First: TCGAGACA
Second: AAAACAGC
The “PBM E-score” value of the first is lower: -0.031 for the first, 0.0542 for the second.

Going from CACCCCCC to CCCCGGTA, the “PBM E-score” value rises from -0.327 to 0.153.

First: ACGGAGTC
Second: ATATCCGA
The “PBM E-score” value of the first is lower: -0.138 for the first, 0.0812 for the second.

First: AGTATCCG
Second: AACCCTAG
The “PBM E-score” value of the first is lower: -0.013 for the first, 0.408 for the second.

Going from TGTCGCAA to GTCCGATA, the “PBM E-score” value falls from 0.0209 to -0.0741.

Compared with CACGGACC, CCGTAGTC is lower in “PBM E-score” value: 0.0552 for the first, -0.127 for the second.

Compared with GAGCTGGC, GAATGAGC is higher in “PBM E-score” value: -0.332 for the first, -0.245 for the second.

Compared with GAGGACGC, AAACCTCA is higher in “PBM E-score” value: -0.14 for the first, 0.232 for the second.

First: AAACGACC
Second: ATTGTGGC
The “PBM E-score” value of the first is higher: 0.279 for the first, 0.0557 for the second.

Compared with CGTCCAGC, GCATGAGC is lower in “PBM E-score” value: -0.203 for the first, -0.216 for the second.

First: ACACAGGA
Second: AAGGCACA
The “PBM E-score” value of the first is lower: -0.0851 for the first, 0.0928 for the second.

First: ACGTCAAG
Second: GGTCATAA
The “PBM E-score” value of the first is lower: -0.0142 for the first, 0.379 for the second.

Going from CCTCCCCC to AGTGCCCC, the “PBM E-score” value rises from -0.293 to -0.156.

Going from CATCGAGG to GTGCTCAA, the “PBM E-score” value rises from 0.00089 to 0.0499.

First: ACCCACTA
Second: ACGTGAAA
The “PBM E-score” value of the first is higher: 0.213 for the first, 0.194 for the second.

First: ATCATGAT
Second: CGCCATTC
The “PBM E-score” value of the first is higher: 0.219 for the first, -0.0351 for the second.

Going from TAGGGTAA to GGCGCGAC, the “PBM E-score” value falls from 0.396 to 0.205.

First: AGAAAGTA
Second: AAATGCCA
The “PBM E-score” value of the first is higher: 0.0344 for the first, -0.122 for the second.

Going from CCGTGCAC to AAGCGCAG, the “PBM E-score” value falls from -0.153 to -0.198.

Going from ACGTGTAA to CAAGGACC, the “PBM E-score” value rises from -0.0731 to 0.14.

Going from CATTACCA to AGGCGGGG, the “PBM E-score” value falls from 0.175 to -0.0391.

Going from ATCCTCCC to TCTCTCCA, the “PBM E-score” value rises from -0.257 to -0.192.

Compared with TCCCAGAA, ACACTGTA is higher in “PBM E-score” value: -0.00682 for the first, 0.0229 for the second.

Going from CCTTACTA to ATATTCGA, the “PBM E-score” value falls from 0.118 to -0.0965.

First: ATTATTTA
Second: AGCGTACC
The “PBM E-score” value of the first is higher: 0.234 for the first, -0.139 for the second.

Going from GTATGCGA to TCGCCTCA, the “PBM E-score” value falls from 0.11 to -0.171.

Compared with CCCGAATC, GATGTTAA is higher in “PBM E-score” value: -0.109 for the first, 0.0418 for the second.

First: CTCCGTTA
Second: AATCAATC
The “PBM E-score” value of the first is lower: -0.0919 for the first, 0.12 for the second.

Compared with ACAGATAA, CGTGGAAC is lower in “PBM E-score” value: 0.0935 for the first, -0.167 for the second.

Compared with ATTGTGGA, ACGTGAAC is higher in “PBM E-score” value: -0.0425 for the first, -0.0284 for the second.

First: CAGATGCC
Second: CCATTCAG
The “PBM E-score” value of the first is lower: -0.27 for the first, 0.0149 for the second.

First: CGCGGGCC
Second: GACGGGGA
The “PBM E-score” value of the first is higher: -0.0117 for the first, -0.224 for the second.

First: ATGTAGTC
Second: CGGAGTAC
The “PBM E-score” value of the first is lower: -0.18 for the first, -0.03 for the second.

Compared with GGTAACCA, CACTACAG is lower in “PBM E-score” value: 0.461 for the first, 0.00506 for the second.

Compared with TGATCCCA, GCTTTGAA is higher in “PBM E-score” value: 0.0037 for the first, 0.0384 for the second.

Compared with AAAAGCCA, TAGTACAA is higher in “PBM E-score” value: -0.00611 for the first, 0.0452 for the second.

Going from CCCGCAGG to CCCGTGAG, the “PBM E-score” value rises from 0.185 to 0.194.

Compared with CACTTCTA, AAGAACGA is higher in “PBM E-score” value: -0.108 for the first, 0.193 for the second.

Going from CTGATCAC to AAAGGCTG, the “PBM E-score” value falls from -0.013 to -0.0396.

Compared with CATCGGGG, ACGTCAGG is lower in “PBM E-score” value: -0.147 for the first, -0.204 for the second.

Compared with CGCACTTA, TCGGTACA is lower in “PBM E-score” value: -0.0155 for the first, -0.0214 for the second.

First: AGGTCCTA
Second: GCTTGGTA
The “PBM E-score” value of the first is higher: 0.0953 for the first, 0.0544 for the second.

Compared with CATGGTAC, GGATGGGA is lower in “PBM E-score” value: 0.22 for the first, -0.0992 for the second.

Compared with GTGCTGGA, GTAATAAC is higher in “PBM E-score” value: -0.169 for the first, 0.234 for the second.

First: GAGGTTTA
Second: CAGGCACA
The “PBM E-score” value of the first is higher: 0.11 for the first, -0.218 for the second.

Compared with CTAGATGA, AGAGGTGC is lower in “PBM E-score” value: 0.0597 for the first, -0.211 for the second.

Going from ACGCTAAC to GCGACCGC, the “PBM E-score” value falls from 0.0137 to -0.00213.

Compared with ATGCCGGC, GCAAGATA is higher in “PBM E-score” value: -0.32 for the first, 0.0727 for the second.

Going from CCTGTGGA to GTAGCAGA, the “PBM E-score” value rises from -0.196 to 0.102.

Compared with CCCCCAAC, ACCCCGCG is higher in “PBM E-score” value: -0.244 for the first, 0.246 for the second.

Going from TAGAACCA to AAGGAAGC, the “PBM E-score” value falls from 0.0918 to -0.252.

Going from GACGCCAC to ATCGGACC, the “PBM E-score” value rises from -0.0954 to -0.021.

First: AAGCGTTA
Second: ATTTAGAG
The “PBM E-score” value of the first is lower: -0.0244 for the first, 0.126 for the second.

Going from GCCCTTCC to CAATTTGC, the “PBM E-score” value falls from -0.105 to -0.169.

First: ACCTCAGT
Second: AGTGAGTC
The “PBM E-score” value of the first is higher: 0.21 for the first, -0.0325 for the second.
